According to PubChem BioAssay AID902 (National Center for Advancing Translational Sciences (NCATS), 2007):
About 1,900 (1.5%) of roughly 130,000 compounds were called active. The shares of active, inactive and inconclusive entries below differ from those in the screen. Calls follow the shape of the dose curve; as a rule, active = well fitted cell-killing curve with a large enough effect; inconclusive = small, poorly fitted or top-dose-only effect; inactive = no such curve, though single readings can be large or run the other way. A potency beside an inconclusive call is a rough fit, not a confirmed value.

assay: qHTS Screen for Compounds that Selectively Target Cancer Cells with p53 Mutations: Cytotoxicity of p53ts Cells at the Nonpermissive Temperature; conditions: H1299-p53A138V viability at 39C, ATP luminescence, 24 h; activity change, negative = cell killing: at 46.1 µM (top of the series); also: nearly all actives have a fitted effect of over 55% in size
% is scaled to controls: 0 for no effect and ±100 for the full control effect; potency is read from the fitted curve at half-maximal effect; tags tell the direction and shape of the fitted curve.

Row | SMILES | Potency | activity change, negative = cell killing
1 | CCOc1ccccc1NC(=O)Cn1c(=O)n(-c2ccc(F)cc2)c(=O)c2c3c(sc21)CN(C(C)=O)CC3 | inconclusive: 0.251 µM [cytotoxic, full curve, poor fit] | –
2 | CC(=O)Nc1ccc(NC(=O)c2cc3sccc3n2Cc2ccc(Cl)cc2)cc1 | inconclusive: 12.6 µM [cytotoxic, partial curve] | –
3 | Cc1ccc(-c2nnc(Nc3ccc(OCC(N)=O)cc3)c3ccccc23)cc1S(=O)(=O)N(C)C | inconclusive: 20 µM [cytotoxic, single point] | –
4 | CC(C)(C)c1ccc(C2=NC(C)(C)N(CC(=O)Nc3ccc(F)c(F)c3)C2=O)cc1 | inconclusive: 15.8 µM [cytotoxic, partial curve] | –
5 | Cc1ccccc1NC(=O)C(=O)NCC1(c2ccccc2)CCCC1 | inconclusive: 0.01 µM [cytotoxic, full curve, poor fit] | –
6 | O=c1c(=O)n(-c2ccccc2)ccn1Cc1cccc(C(F)(F)F)c1 | inconclusive: 3.16 µM [cytotoxic, single point] | –
7 | COC(=O)C1C(O)CC[C@H]2CN3CCc4c([nH]c5ccccc45)C3C[C@H]12 (some centres not stated) | inactive | –
8 | CSc1ccc(CCNC(=O)c2ccc3c(c2)nc2n3CCCCC2)cc1 | inactive | –
9 | Cc1cccc(C)c1NC(=O)CSc1ncc2c(n1)-c1ccc(Cl)cc1N(Cc1ccccc1)S2(=O)=O | inconclusive: 15.8 µM [cytotoxic, partial curve] | –
10 | CCOC(=O)c1c(C)oc2c1c(C=NCc1ccccn1)c(O)c1ccccc12 | inconclusive: 25.1 µM [cytotoxic, single point] | –
11 | COC(=O)C/C=C\[C@@H](C)[C@@H](/C=N\O[C@@H](C)CN1CCCCc2nc(C)c(C)cc21)OC | – | inactive: 4.02% [at 9.22 µM]
12 | CNS(=O)(=O)c1ccc(NC(=O)c2cnn3c(C(F)F)cc(-c4ccccc4)nc23)cc1 | active: 12.6 µM | –
13 | COc1cccc(CNC(=O)CCc2c(C)nc3c(c2C)c(=O)n(C)c(=O)n3C)c1 | inactive | –
14 | COc1ccc(Nc2ncnc3c2c(-c2ccccc2)cn3-c2ccc(C)c(Cl)c2)cc1OC | inconclusive: 31.6 µM [cytotoxic, single point] | –
15 | Cc1c(C(=O)NCC2CCCO2)oc2ccc3c(c12)C(=O)CC(C)(C)O3 (configuration not stated) | inconclusive: 15.8 µM [cytotoxic, partial curve] | –
16 | C=CCNc1ncnc2c1cnn2-c1cccc(C)c1 | inconclusive: 20 µM [cytotoxic, partial curve] | –
17 | CN(C1CCCCC1)S(=O)(=O)c1ccc2c(c1)c(=O)c(C(=O)NCc1ccccc1Cl)cn2C | inconclusive: 0.0398 µM [cytotoxic, full curve, poor fit] | –
18 | O=C(CCc1ccc(O)cc1)c1c(O)cc(O)cc1O[C@H]1OC(CO)C(O)C(O)C1O (some centres not stated) | inactive | –
19 | CC1CCN(S(=O)(=O)c2ccc(C(=O)Nc3nc4ccc(F)cc4s3)cc2)CC1 | inactive | –
20 | O=C(CSC1=NCCN1)c1ccccc1 | – | inactive: 1.13% [at 9.22 µM]
21 | O=C(NCCc1ccc(Cl)cc1)c1ccc(Cn2c(=O)[nH]c3ccccc3c2=O)cc1 | inconclusive: 1.58 µM [cytotoxic, partial curve, poor fit] | –
22 | Cc1ccc(C(=O)Nc2ccc3c(c2)CCC3)o1 | inconclusive: 12.6 µM [cytotoxic, partial curve] | –
23 | CC(=O)OCCNC(=O)Cn1cnc2c1c(=O)n(C)c(=O)n2C | inconclusive: 10 µM [cytotoxic, partial curve] | –

Row | SMILES | Potency | activity change, negative = cell killing
24 | CCOc1ccc(-c2cc3nc(C4CCN(C(=O)OC(C)(C)C)CC4)c(C(=O)Nc4ccc(C)c(F)c4)cn3n2)cc1 | inconclusive: 15.8 µM [cytotoxic, single point] | –
25 | CC1=C(C(=O)OC(C)C)C(c2c[nH]c3ccccc23)n2ncnc2N1 (configuration not stated) | inactive | –
26 | CCc1c(C)sc(NC(=O)c2cc(C)on2)c1C#N | inconclusive: 15.8 µM [cytotoxic, partial curve] | –
27 | CCOC(=O)c1sc(NCc2ccco2)c(-c2nc3ccccc3s2)c1N | inconclusive: 31.6 µM [cytotoxic, single point] | –
28 | Cc1ccc(Cl)cc1NS(=O)(=O)c1ccc2oc(=O)c3ncn(C)c3c2c1 | active: 20 µM | –
29 | CC(=O)OCC1OC(n2cnc3c(Cl)nc(Cl)nc32)C(OC(C)=O)C1OC(C)=O (configuration not stated) | inconclusive: 31.6 µM [cytotoxic, single point] | –
30 | COc1ccc(-c2nnc(SCC(=O)Nc3ccccc3OC)o2)cc1 | inconclusive: 12.6 µM [cytotoxic, partial curve] | –
31 | CCn1cc(C(=O)OCC(=O)OC2CC(C)CCC2C(C)C)c(=O)c2ccc(C)nc21 (configuration not stated) | inactive | –
32 | COc1ccc(OC)c(NC(=O)c2c(N3CCCC3=O)c3cc(OC)ccc3n2C)c1 | inactive | –
33 | CC1CCN(CC[C@@H]2CCCN2S(=O)(=O)c2cccc(O)c2)CC1 | inactive | –
34 | O=C1C[C@@H](O)[C@@H](O)[C@@H]2[C@H]3C(=O)N(c4ccc(F)cc4F)C(=O)[C@@H]3CC[C@@H]12 | – | inactive: 19.6% [at 9.22 µM]
35 | Nc1ccc2c(c1)C(=O)c1ccccc1C2=O | inconclusive: 12.6 µM [cytotoxic, partial curve] | –
36 | O=C(Nc1ccc(S(=O)(=O)Nc2ccccc2)cc1)C1COc2ccccc2O1 (configuration not stated) | active: 22.4 µM | –
37 | CCOC(=O)c1c(C)n(C)c2ccc(OC(=O)c3ccc([N+](=O)[O-])cc3)cc12 | inconclusive: 1 µM [cytotoxic, partial curve] | –
38 | Cc1ccc(NC(=O)C2CCN(S(=O)(=O)c3ccc4[nH]c5c(c4c3)CCCCC5)CC2)cc1 | inconclusive: 0.631 µM [cytotoxic, full curve, poor fit] | –
39 | COc1ccccc1Cn1cc(C(=O)c2ccc(Cl)cc2)c(=O)c2ccccc21 | active: 12.6 µM | –
40 | Cc1cccc(N2CCN(C(=O)C3CCCN(S(=O)(=O)c4ccc5c(c4)oc(=O)n5C)C3)CC2)c1C (configuration not stated) | inactive | –
41 | CCC(C)N1CC(O)=C(c2nc3ccccc3[nH]2)C1=N (configuration not stated) | inconclusive: 10 µM [cytotoxic, partial curve] | –
42 | O=C(Cn1c(=O)c2cccn2c2ccc(F)cc21)N1CCN(c2ccccc2F)CC1 | inconclusive: 5.62 µM [cytotoxic, single point] | –
43 | O=C(NC1=NCCS1)c1sc2cc(F)ccc2c1Cl | inconclusive: 8.91 µM [cytotoxic, partial curve] | –
44 | Fc1ccc(-n2ncc3c(NCCCn4ccnc4)ncnc32)cc1 | inconclusive: 10 µM [cytotoxic, partial curve] | –
45 | Brc1ccc(-c2csc(/N=C/N3CCOCC3)n2)cc1 | inactive | –
46 | c1ccc(-c2cccc(-c3ccccn3)n2)nc1 | active: 0.794 µM | –

Row | SMILES | Potency | activity change, negative = cell killing
47 | c1ccc(-c2cn3nc(-c4ccccc4)sc3n2)cc1 | inconclusive: 1 µM [cytotoxic, full curve] | –
48 | COC(=O)[C@@]1(C)CCC[C@@]2(C)c3ccc(O)c(C(C)C)c3CCC21 (some centres not stated) | active: 20 µM | –
49 | Cc1ccccc1-c1ccc2ncnc(-n3ccnc3)c2c1 | inconclusive: 31.6 µM [cytotoxic, single point] | –
50 | Cc1ccc(CNC(=O)c2c(Nc3c(C)cccc3C)sc(C(=O)c3ccccc3)c2N)cc1 | inconclusive: 12.6 µM [cytotoxic, single point] | –
51 | Cc1ccc(CNC(=O)c2c(Nc3ccccc3C)sc(C(=O)c3ccc(F)cc3)c2N)cc1 | – | inconclusive: -35.4% [cytotoxic]
52 | CC(C)c1cc(-c2nc(-c3ccc(Cl)cc3)no2)n[nH]1 | inconclusive: 0.631 µM [cytotoxic, full curve, poor fit] | –
53 | CCCn1c(-c2ccc(F)cc2)nc2c(NC3CCN(Cc4ccccc4)C3)nc(C)nc21 (configuration not stated) | inconclusive: 31.6 µM [cytotoxic, single point] | –
54 | COc1cc(Nc2nc(-c3ccc(OC)c(OC)c3)nc3ccccc23)cc(OC)c1 | inconclusive: 10 µM [cytotoxic, partial curve] | –
55 | Cc1cccn2c(=O)c(C(=O)N3CCN(c4ccccc4)CC3)cnc12 | inconclusive: 0.005 µM [cytotoxic, full curve] | –
56 | COc1cccc(/C=C/C(=O)Oc2ccc(C(=O)c3ccc(F)cc3)cc2)c1 | inactive | –
57 | CCN(CC)c1ccc2c(c1)CCCN2 | inconclusive: 8.91 µM [cytotoxic, partial curve] | –
58 | CCOc1ccc(-c2noc(CCC(=O)O)n2)cc1 | inconclusive: 0.251 µM [cytotoxic, full curve, poor fit] | –
59 | COc1ccc(OC)c(NC(=O)C2=C(C)C(=O)OC23CCN(C(C)C)CC3)c1 | inconclusive: 1 µM [cytotoxic, full curve, poor fit] | –
60 | CC(C)Nc1ncnc2c1cnn2-c1ccccc1 | inconclusive: 10 µM [cytotoxic, partial curve] | –
61 | COc1ccc(-c2nc(CSCC(=O)NCCC(C)C)c(C)o2)cc1OC | inactive | –
62 | Cc1oc2ccc(O)c(CN3CCCCCC3)c2c1C(=O)Nc1cccc(C(F)(F)F)c1 | active: 15.8 µM | –
63 | CCOc1ccc(-c2cn3nc(CC(C)C)sc3n2)cc1 | inconclusive: 5.01 µM [cytotoxic, partial curve] | –
64 | O=C1Nc2ccc(S(=O)(=O)N3CCCCCC3)c3cccc1c23 | inactive | –
65 | O=C(Nc1cccnc1)c1cc2c(ccc3ccccc32)o1 | inconclusive: 31.6 µM [cytotoxic, single point] | –
66 | CCN(CC)c1ccc(C2C(C(N)=O)=C(C)Nc3nc(SCc4ccccc4Cl)nn32)cc1 (configuration not stated) | inconclusive: 25.1 µM [cytotoxic, single point] | –
67 | COc1ccc(C)cc1NS(=O)(=O)c1ccc2oc(=O)c3ncn(C)c3c2c1 | inconclusive: 15.8 µM [cytotoxic, partial curve] | –
